Counter-ions that a name gives are not always drawn.
Assays:
[1] = molecular target: T1, human NTCP (Homo sapiens, UniProt Q14973); assay: Screening taurocholate uptake assay (96-well, [14C]taurocholate, 10 µM drug); settings: for remaining activity at 10 µM: 10 min, read-out: %NTCP activity
T1 sequence (Q14973 1-349): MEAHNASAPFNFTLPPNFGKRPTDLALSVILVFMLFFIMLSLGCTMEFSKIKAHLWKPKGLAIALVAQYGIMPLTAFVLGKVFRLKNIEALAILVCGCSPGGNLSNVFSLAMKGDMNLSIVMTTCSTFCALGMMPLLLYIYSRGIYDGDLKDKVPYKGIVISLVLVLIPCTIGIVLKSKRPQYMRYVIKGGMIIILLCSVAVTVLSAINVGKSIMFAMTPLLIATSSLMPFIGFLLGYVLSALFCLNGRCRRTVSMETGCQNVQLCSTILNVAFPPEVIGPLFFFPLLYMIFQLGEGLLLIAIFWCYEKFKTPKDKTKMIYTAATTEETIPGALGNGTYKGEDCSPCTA

[2] = molecular target: T1, human NTCP; assay: Screening fluorescent competitive Myrcludex B-FITC binding assay (96-well, 10 µM drug); settings: for remaining activity at 10 µM: 0.5 h

Row | SMILES | remaining activity at 10 µM [1] [%] | remaining activity at 10 µM ([2]; read-out: %NTCP binding) [%] | also measured
1 | CCOC(=O)[C@H](CCc1ccccc1)N[C@@H](C)C(=O)N1Cc2ccccc2C[C@H]1C(=O)O [Quinapril HCl] | 80.4 | 101 | –
2 | CC1CNc2c(cccc2S(=O)(=O)N[C@@H](CCCNC(=N)N)C(=O)N2CC[C@@H](C)C[C@@H]2C(=O)O)C1 (stereo partly drawn) [Argatroban] | 116 | 80 | –
3 | CCOC(=O)[N-]c1cn(N2CCOCC2)n[o+]1 [Molsidomine] | 76.7 | 75.3 | –
4 | C[C@H](N)[C@H](O)c1ccc(O)c(O)c1 [Levonordefrin] | 107 | – | remaining activity at 10 µM ([2]; read-out: %NTCP binding, screen, 10 µM drug, Myrcludex B-FITC binding): 85.7%
5 | COc1cc(-c2ccc(=O)[nH]n2)ccc1OC(F)F [Zardaverine] | 41.3 | 110 | –
6 | Cc1c(NC(=O)c2cccnc2)c(=O)n(-c2ccccc2)n1C [Nifenazone] | 94.6 | 63.3 | –
7 | CCCC(C)(COC(N)=O)COC(=O)NC(C)C (stereo not drawn) [Carisoprodol] | 34.4 | – | remaining activity at 10 µM ([2]; read-out: %NTCP binding, Prestwick library screen, Myrcludex B-FITC binding, 10 µM drug): 104%
8 | Cc1cn([C@H]2C=C[C@@H](CO)O2)c(=O)[nH]c1=O [Stavudine] | 75.9 | 83.2 | –
9 | Nc1cc(-c2ccncc2)c[nH]c1=O [Amrinone] | 70 | 69.9 | –
10 | CCN1CCN(C(=O)N[C@@H](C(=O)N[C@@H]2C(=O)N3[C@@H]2SC(C)(C)[C@@H]3C(=O)O)c2ccccc2)C(=O)C1=O [Piperacillin sodium salt] | 38 | 98.5 | –
11 | O=C1[C@H]2CCCC[C@H]2C(=O)N1CCCCN1CCN(c2nsc3ccccc23)CC1 [Perospirone] | 97.6 | 84.4 | –
12 | COc1ccc(CN(CCN(C)C)c2ccccn2)cc1 [Pyrilamine maleate] | 30.1 | 55.4 | –
13 | CCCOc1ccc(C(=O)OCCN(CC)CC)cc1N [Proparacaine hydrochloride] | 59.9 | 87.5 | –
14 | CCOc1nc2cccc(C(=O)O)c2n1Cc1ccc(-c2ccccc2-c2nnn[nH]2)cc1 [Candesartan] | 77.4 | 117 | –
15 | C[N+]1(C)[C@@H]2CC[C@H]1C[C@@H](OC(=O)C(CO)c1ccccc1)C2 (stereo partly drawn) [Methylatropine nitrate] | 65.3 | 100 | –
16 | Nc1ccn([C@@H]2O[C@H](CO)[C@@H](O)C2(F)F)c(=O)n1 [Gemcitabine] | 94.2 | 97 | –
17 | Cc1c(-c2ccccc2)oc2c(C(=O)OCCN3CCCCC3)cccc2c1=O [Flavoxate hydrochloride] | 56.9 | 89.8 | –
18 | CC(=O)OC(C)C[N+](C)(C)C (stereo not drawn) [Methacholine chloride] | 92.3 | 78.1 | –
19 | CC(C)[C@H](N)C(=O)OCCOCn1cnc2c(=O)[nH]c(N)nc21 [Valacyclovir hydrochloride] | 20.2 | 60.1 | –
20 | CN(c1nccc(=O)[nH]1)C1CCN(c2nc3ccccc3n2Cc2ccc(F)cc2)CC1 [Mizolastine] | 118 | 85 | –
21 | O=C(O)Cc1sc(-c2ccccc2)nc1-c1ccc(Cl)cc1 [Fentiazac] | 43 | 70 | –
22 | CC[C@H]1OC(=O)[C@H](C)[C@@H](O[C@H]2C[C@@](C)(OC)[C@@H](O)[C@H](C)O2)[C@H](C)[C@@H](O[C@@H]2O[C@H](C)C[C@H](N(C)C)[C@H]2O)[C@](C)(OC)C[C@@H](C)C(=O)[C@H](C)[C@@H](O)[C@]1(C)O [Clarithromycin] | 87.5 | 82.1 | –
23 | C(#CCN1CCCC1)CN1CCCC1.Cl.Cl [Tremorine dihydrochloride] | – | – | %NTCP activity [1]: 101.872%; %NTCP binding ([2]; screen, 10 µM drug, Myrcludex B-FITC binding): 85.5389%
24 | CN(C)[C@@H]1C(O)=C(C(=O)NCNCCCC[C@H](N)C(=O)O)C(=O)[C@@]2(O)C(O)=C3C(=O)c4c(O)cccc4[C@@](C)(O)[C@H]3C[C@@H]12 [Lymecycline] | 70.8 | 83.5 | –
25 | CCN(CCO)CCCC(C)Nc1ccnc2cc(Cl)ccc12 (stereo not drawn) [Hydroxychloroquine sulfate] | 120 | 84.6 | –
26 | O=C(N/N=C/c1ccc([N+](=O)[O-])o1)c1ccc(O)cc1 [Nifuroxazide] | 79.3 | 75.2 | –
27 | CN(C)CCc1c[nH]c2ccc(Cn3cncn3)cc12 [Rizatriptan benzoate] | 50 | 108 | –
